# Patent US11903959B2 (EMORY UNIVERSITY, priority 2017, dated 2024)
# What was measured:
# [1] = tested on: Junin virus; format: cell-based; conditions: Vero cells, listed as N4-Hydroxycytidine
# [2] = tested on: VEEV; format: cell-based, Venezuelan equine encephalitis virus; conditions: Vero76 cells, listed as N4-Hydroxycytidine
# [3] = tested on: WEEV; format: cell-based, Western equine encephalitis virus; conditions: Vero76 cells, listed as N4-Hydroxycytidine
structure (smiles),measurement,setting,value
"O=c1nc(NO)ccn1C1OC(CO)C(O)C1O (stereo not drawn) [EIDD-1931, 1-(3,4-dihydroxy-5-(hydroxymethyl)tetrahydrofuran-2-yl)-4-(hydroxyamino)pyrimidin-2-one]",EC50,[1],20800 nM
same,EC50,[2],1920 nM
same,EC50,[3],760 nM
